# Screen size: about 2,200 compounds; fewer than 10 were called active. Some of the results follow. Where no call is shown, the source marks the result inconclusive.
# Molecular target: GTPase KRas (Homo sapiens) (UniProt P01116)
# Assay: Fragment capture on engineered cysteines, share of protein labelled (AID 2202238)
# Set-up: protein at 5 µM with 500 µM competing thiol for 1.5 h
# Conditions: KRAS G12D cysteine mutants, disulfide tethering, MALDI-TOF labeling; stronger effect = higher value; H27C mutant labeling; fragment at 500 µM
# Chain of UniProt P01116 (P01116 whole entry, looked up, the tested form may be a part): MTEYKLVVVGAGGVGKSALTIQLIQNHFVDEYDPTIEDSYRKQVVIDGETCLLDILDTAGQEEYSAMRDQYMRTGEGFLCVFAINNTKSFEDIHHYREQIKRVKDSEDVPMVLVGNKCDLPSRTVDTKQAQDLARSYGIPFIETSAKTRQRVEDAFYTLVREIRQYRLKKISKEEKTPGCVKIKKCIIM
row,SMILES,percent labeling [%]
1,Cn1nccc1C1(CNC(=O)CCS)CC1,32.7
2,CC1(C)CN(C2(CNC(=O)CCS)CCCCC2)CCO1,41.3
3,COc1ccc(-c2noc(C(=O)NCCNC(=O)CCS)n2)cc1,26.3
4,CC1(C)CCc2cc(NC(=O)CCS)ccc2O1,29.8
5,CC1Cc2ccccc2N1Cc1occc1C(=O)NCCS (centres undefined),11.1
6,Cc1cc(C(=O)NCCS)[nH]c1C,27.4
7,CC(Cc1cnc2ccccc2n1)C(=O)NCCS (centres undefined),28
8,O=C(CCS)NC1CCN(c2c(F)cccc2F)C1 (centres undefined),27.3
9,O=C(NCCS)c1cc(COc2ccccc2F)on1,31.7
10,COc1cc(OC)c2[nH]c(C(=O)NCCS)cc2c1,22.9
11,CCCn1c(=O)n(CCC(=O)NCCS)c2ccccc21,36.3
12,O=C(CCS)Nc1ccc(Oc2ccc(Cl)cc2)cn1,33.8
13,Cc1ccc(CC2CN(C(=O)CCS)C2)cc1,42.1
14,O=C1NCCN(C(=O)CCS)C1c1ccccc1 (centres undefined),33.9
15,Cc1ccc(CN(C)C)cc1NC(=O)CCS,50.5
16,O=C(NCCS)c1cn(CCO)c(=O)[nH]c1=O,42.8
17,O=C(NCCS)c1cccn1Cc1ccccc1Cl,32.6
18,COc1ccc(OCCN2CCN(C(=O)CCS)CC2)cc1,40.6
19,Cc1cc(Br)ccc1NC(=O)CNC(=O)CCS,30.2
20,O=C(NCCS)C1CCC2(CC1)COCCO2 (centres undefined),32
21,O=C(NCCS)c1cccn1-c1c(Cl)cccc1Cl,34.1
22,CCn1ccnc1C1CCCCN1C(=O)CCS (centres undefined),38.3
23,O=C(NCCS)c1ccc(Br)cc1-n1cnnn1,27.6
24,O=C(CCS)NC1CCN(Cc2c[nH]c3ncccc23)CC1,43

row,SMILES,percent labeling [%]
1,CN(Cc1ccco1)C(=O)NCC(=O)NCCS,21.5
2,O=C(CCS)N1CCN(Cc2cc3ccccc3o2)CC1,43.6
3,Cc1nn(C)c2nc(-c3ccccc3)cc(C(=O)NCCS)c12,37.9
4,O=C(CCS)N1CCOCC1c1ncn(Cc2ccccc2)n1 (centres undefined),39.5
5,O=C(CCS)NCC(=O)Nc1cccc2cccnc12,30.4
6,Cc1nn(CC(=O)NCCS)c2nc(C(C)C)cc(C(F)(F)F)c12,11.1
7,Cn1ncc2cc(CNC(=O)CCS)cnc21,33.2
8,COc1ccc2c(C)c(CCC(=O)NCCS)c(=O)oc2c1,31.8
9,Cc1cc(N2CC(NC(=O)CCS)C2)cc(=O)o1,38.9
10,O=C(NCCS)c1ccc(=O)n(-c2ccccc2F)c1,47.4
11,Cc1nc2c(c(C)c1CC(=O)NCCS)c(=O)[nH]n2C,31
12,CN(CCCc1cc(-c2ccccc2)n(C)n1)C(=O)CCS,41.1
13,O=C(NCCS)C1CC(=O)N(Cc2ccc(F)cc2F)C1 (centres undefined),37.7
14,Cc1nc2nc[nH]n2c(=O)c1CCC(=O)NCCS,21.7
15,O=C(CN1C(=O)NC(c2cccs2)(C2CC2)C1=O)NCCS (centres undefined),27.8
16,O=C(COC(c1ccccc1)c1ccccc1)NCCS,24
17,CN1C(=O)CCc2cc(C(=O)NCCS)ccc21,45.7
18,CN(C)C(C(=O)NCCS)c1ccc(Cl)cc1 (centres undefined),4.5
19,O=C(NCCS)c1ccn(Cc2ccccc2)c1,38.1
20,O=C(CCS)NCCn1c(=O)[nH]c2cccnc21,32.9
21,O=C(NCCS)c1cccc2cnccc12,51
22,Cc1nc(-c2c(C)noc2C)sc1C(=O)NCCS,36
23,O=C(NCCS)c1ccc(C(=O)N2CCOCC2)cc1,40.4
24,Cn1cc(C(=O)NCCS)c(C(F)(F)F)c1,38.6

row,SMILES,percent labeling [%]
1,O=C(Cn1cnc2ccc(Br)cc2c1=O)NCCS,25.8
2,O=C(CCS)Nc1cn(CCOCC(F)(F)F)nc1-c1ccccn1,22.4
3,O=C(CCNC(=O)Nc1ccc(Br)cc1)NCCS,15.7
4,NC(=O)c1cn(C2CN(C(=O)CCS)C2)nn1,30.8
5,Cc1c(Br)cc(C(=O)NCCS)c(=O)n1C,43.1
6,O=C(NCCS)c1nn(-c2cc(Cl)ccc2F)c2c1CCC2,29.5
7,O=C(CCS)N1CCC2(CC1)Cc1ccccc1NC2=O,58.4
8,CCn1cc(-c2cc(C(F)(F)F)n(CCCNC(=O)CCS)n2)cn1,27.4
9,O=C(CCS)NC1CCN(CCOc2ccc(Cl)cc2)CC1,48.8
10,Cc1ccc(-n2ncc(NC(=O)CCS)c2C)cc1,39.2
11,O=C(NCCS)C1(c2c(Cl)cccc2Cl)CCC1,29.3
12,O=C(NCCS)c1ccc(CN2C(=O)CNC2=O)cc1,42.3
13,O=C(NCCS)c1csc(-c2cccc3ccccc23)n1,28.6
14,O=C(CCS)NC1CC(Cn2ccnn2)C1 (centres undefined),30.2
15,O=C(NCCS)c1sc(N2CCOCC2)nc1Cl,38.5
16,Cc1c(C(=O)NCCS)nnn1-c1ccc(F)cc1,28.1
17,O=C(NCCS)c1coc(-c2c(F)cccc2F)n1,35.7
18,CC1(C)Cc2occc2CN(C(=O)CCS)C1,37.6
19,O=C(CCS)N1CCC(c2c[nH]c3ccc(F)cc23)CC1,42.8
20,COc1cc(CNC(=O)CCS)ccc1OCc1cccnc1,41.4
21,O=C(NCCS)[C@]12CCC[C@H]1CN(Cc1ccccc1)C2,43.9
22,CN(CC1CCCCC1)C(=O)C(C)(C)NC(=O)CCS,40
23,O=C(NCCS)C1CCN(C(=O)c2csc(-c3ccccc3)n2)CC1,24.5
24,Cc1ccc(CNC(=O)CCS)c(-n2cc(Cl)cn2)n1,42.2

row,SMILES,percent labeling [%]
1,O=C(NCCS)c1cnc(-c2ccccc2)nc1,16.5
2,CCc1n[nH]c(=O)c(C(=O)NCCS)c1CC,31.4
3,Cc1ccc(C)c(Sc2ccc(NC(=O)CCS)cc2)c1,26.3
4,O=C(CC1(Cn2cnnn2)CCCCC1)NCCS,38
5,O=C(CCS)NC1(Cc2cccc(Br)c2)CC1,37.7
6,O=C(CCS)NCCc1ccc(O)cc1O,40.6
7,CC(C)(NC(=O)CCS)c1nccc(C(F)(F)F)n1,33.7
8,O=C(NCCS)c1cc(Br)c2c(c1)OCCO2,35.9
9,O=C(NCCS)c1nc(-c2cccc(C(F)(F)F)c2)cs1,41.8
10,O=C(NCCS)c1csc(Cc2ccccc2F)n1,20.8
11,CCc1c(C(=O)NCCS)[nH]c(C)c1C(N)=O,47.6
12,O=C(NCCS)c1csc2cc(Cl)cnc12,34.2
13,O=C(NCCS)c1cc(-c2ccncc2)nc2ccccc12,33.7
14,O=C(CCS)N1C[C@@H]2Oc3c(F)ccc(F)c3O[C@@H]2C1,52.7
15,N#Cc1cccc(CN2C(=O)CCC2C(=O)NCCS)c1 (centres undefined),42.4
16,O=C(CCS)Nc1ccn(CCN2CCNC2=O)n1,34.2
17,Cc1ccc(-c2cc(C(=O)NCCS)c3cnn(C(C)C)c3n2)s1,17.7
18,Nc1ncnc2c1ncn2C[C@H]1CC[C@@H](C(=O)NCCS)O1,53.5
19,O=C(NCCS)c1ccc(Oc2ccc(Cl)cc2)c(F)c1,15.3
20,Cc1nc(C2CCCC2)sc1C(=O)NCCS,30.7
21,Cc1sc(C2(NC(=O)CCS)CCC2)nc1-c1ccccc1F,29.2
22,Cn1cc(CCC(=O)NCCS)cn1,34.8
23,O=C(CCS)NCCc1nc2ncccn2n1,20.6
24,NC(=O)c1cn(C2CCN(C(=O)CCS)CC2)nn1,35.7

row,SMILES,percent labeling [%]
1,O=C(CCS)NCc1ccnc(-n2cncn2)c1,33.6
2,O=C(CCS)N1CCN(C(=O)c2n[nH]c3ccccc23)CC1,48.8
3,O=C(NCCS)c1ccc(-n2ccnc2)cn1,45.2
4,O=C(CCn1c2ccc(Cl)cc2c2cc(Cl)ccc21)NCCS,16.5
5,NC(=O)NC(CC(=O)NCCS)c1cccs1 (centres undefined),23.1
6,O=C(CCS)N1CCN(C(=O)c2cccc(F)c2)CC1,47.2
7,Cc1cc(C)n(C)c(=O)c1CNC(=O)CCS,26
8,Cc1nc(-c2cnn(C)c2)sc1C(=O)NCCS,45.8
9,COc1ccccc1N(Cc1nc(C)cs1)C(=O)CCS,42.1
10,CN(C)Cc1ccc(CNC(=O)CCS)s1,46.9
11,O=C(CCS)N1CCC(c2ncccc2Cl)CC1,52
12,O=C(NCCS)C1CCN(C(=O)c2ccc(-c3ncccn3)cc2)CC1,37.9
13,COCc1nc(CNC(=O)CCS)c(-c2ccccc2)s1,37.7
14,CCc1cccc2c(F)c(C(=O)NCCS)[nH]c12,20.6
15,Cc1c(C(=O)NCCS)cnc2c1c(=O)n(C)c(=O)n2C,46.7
16,O=C(CCS)Nc1cnn(CC(=O)NC2CC2)c1,27.4
17,O=C(CCS)NCC(=O)Nc1ccccc1Br,40.9
18,CN1CCN(C2(C(=O)NCCS)CCCC2)CC1,46.6
19,O=C(CCS)Nc1ccc(-c2nnc3n2CCCCC3)cc1,44.5
20,COc1ccc(OC)c(C2CC2C(=O)NCCS)c1 (centres undefined),36.3
21,O=C(NCCS)C1(Cc2cn[nH]n2)CCCC1,35.2
22,CC(C)c1cc(C(=O)NCCS)c(C(C)C)[nH]1,22.7
23,CCn1nccc1C1CCN(C(=O)CCS)CC1,41
24,O=C1CN(S(=O)(=O)c2cccc(NC(=O)CCS)c2)CCN1,47.3

row,SMILES,percent labeling [%]
1,O=C(NCCS)C(c1ccccc1)n1cnc2ccccc21 (centres undefined),30.6
2,NC(=O)c1ccccc1OCc1cccc(C(=O)NCCS)c1,34.3
3,CN(Cc1coc2cc(F)cc(F)c12)C(=O)CCS,34.5
4,CN1C(=O)CC(C(=O)NCCS)c2ccccc21 (centres undefined),30.9
5,O=C(CCS)N1CCC(n2cccn2)CC1,40.4
6,O=C(CCS)N1CCC(c2ccc(F)cc2Cl)CC1,43.4
7,CN(c1cc(C(=O)NCCS)ccn1)C1CCCC1,30.3
8,CCc1ccc(C2COCCN2C(=O)CCS)o1 (centres undefined),38.4
9,O=C(NCCS)c1cccc2ccn(Cc3ccccc3)c12,26.5
10,COCCn1cc(C(=O)NCCS)c(=O)cc1C,32.2
11,COC(=O)c1cnc(CC2CCN(C(=O)CCS)CC2)s1,48.9
12,O=C(CCS)NCc1cnc(-c2ccccc2)[nH]1,35.8
13,CN(C)C(=O)Cc1ccc(S(=O)(=O)N2CCC(C(=O)NCCS)CC2)cc1,27.9
14,O=C(CCS)NCc1noc2cc(F)ccc12,42.1
15,O=C(Cc1cc2cc(Cl)ccc2[nH]1)NCCS,11.4
16,O=C(NCCS)C1CCN(S(=O)(=O)N2CCCCC2)CC1,33.4
17,CC(C)(C)C(=O)N1CCOC(C(=O)NCCS)C1 (centres undefined),28
18,O=C(CCS)N1CCC(c2n[nH]c(=O)o2)CC1,32.2
19,O=C(NCCS)c1cc(-c2ccn[nH]2)ccc1F,51.7
